The source of these data is the supplement of paper PMC11417369.

± gives the standard deviation of the averaged measurements. This is one part of the list.

The test system of this test is PfAP2-LT AP2 domain (GST-tagged). Briefly: gcPBM binding intensity (ln(normalized median fluorescence intensity)); higher = stronger DNA binding. The method in brief:
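After 1 h on an Agilent 4 × 180k array of primer-extended double-stranded 36-bp intergenic genomic probes and negative controls, bound GST-tagged P. falciparum DNA-binding domains were detected with Alexa488 anti-GST antibody and scanned at 488 nm. The domains had been expressed in E. coli, and binding took place in 1× PBS with 1% milk, 0.2 mg/ml BSA, 0.5% salmon testes DNA and 0.03% Triton X-100. Binding intensity is the highest Masliner-normalised natural-log median intensity across replicate spots of either probe orientation.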
With “TATAATCATATACACGCATGTATAAAATTTAATACT [TGCATGCA_site700]”, the “gcPBM binding intensity (ln)” value came to 8.96 ± 0.35.
For the sequence “TAATATATGTATTATGCATGTGAATAAGCACTTGAT [TGCATGCA_site848]”, the “gcPBM binding intensity (ln)” value worked out at 8.74 ± 0.31.
On to “ATATGTTACAAAGATTGTACTTATTAAGGAGCGACT [XGTACX_site5094]”, for which the “gcPBM binding intensity (ln)” value was found to be 8.85 ± 0.36.
Regarding “TGTAAACATAAGATATGTACTTATATCATATTATAA [XGTACX_site6883]”, the “gcPBM binding intensity (ln)” value worked out at 8.59 ± 0.59.
On to “ATGACAATTCAAAATTGTACATAAAAAAAAAAAAAA [XGTACX_site7560]”, for which the “gcPBM binding intensity (ln)” value was 8.45 ± 0.48.
As to “AAATAAAAATAAAATAAAATAAAATTAAATGGGAAT [GTGCAC_negctrl_site349]”, the “gcPBM binding intensity (ln)” value was 8.79 ± 0.42.
With “GTTTTATATTATATATGTACATATCCATGAGATATA [XGTACX_site3328]” the figure was 8.91 ± 0.4.
As for “TTTAACTTTTATATAACACACATATTGTAATTATGT [CACACA_site6486]”, the “gcPBM binding intensity (ln)” value was 9.12 ± 0.32.
For “TTCATATGTTTTAACACACACGCATATATTATATAT [CACACA_site2007]”, the “gcPBM binding intensity (ln)” value was 9.22 ± 0.39.
Take “AAAAAAATTTGGCATACACACACACCCCCACCCACA [CACACA_site8094]”: the “gcPBM binding intensity (ln)” value is 10.41 ± 0.05.
As to AAAAAACATTTTCGAGTGCATGTTTTGCTTTATTTC, the “gcPBM binding intensity (ln)” value was 8.85 ± 0.35.
“AATAATTTGGTCTTATCAAAAATTAAAAATAAATAA [XGTACX_negctrl_site430]”: the “gcPBM binding intensity (ln)” value worked out at 8.32 ± 0.4.
Turning to “TTAAATGTTAAAAGGGTGCTATTATATAAATGAAAA [GTGCAC_site9882]”, the “gcPBM binding intensity (ln)” value amounted to 8.46 ± 0.45.
Under “AAAAATTACCCTTGTGTACACATATATTATCTGTAT [CACACA_site4513]” stands 9.14 ± 0.46.
For AACATATTGGATTTAGTGCACATATATATCATAATA, the “gcPBM binding intensity (ln)” value worked out at 8.8 ± 0.47.
As for “TCTTATAAACATGTATATATTAAAAAAAAAAAAAAA [TGCATGCA_negctrl_site86]”, the “gcPBM binding intensity (ln)” value worked out at 8.29 ± 0.45.
In the case of “TATAAGCTTTCAATGTGTACATATTATTTTATTATT [XGTACX_site3988]”, the “gcPBM binding intensity (ln)” value came to 8.94 ± 0.4.
As to “TAATAATAATTAAATTGTACATATAATATAATATAA [XGTACX_site8554]”, the “gcPBM binding intensity (ln)” value was 8.49 ± 0.45.
Take “AATAAAGTAATAACTACACACATTTATAAAAAAGTA [CACACA_site3753]”: the “gcPBM binding intensity (ln)” value came to 9.01 ± 0.53.
In the case of “ATATTATCATATTCGAGTACACGAAGTATTATTGCA [XGTACX_site6765]”, the “gcPBM binding intensity (ln)” value came out at 8.89 ± 0.31.
For the sequence “TAAAAATTACTATATGAACACACATGATTAGATATA [CACACA_site9012]”, the “gcPBM binding intensity (ln)” value is 8.71 ± 0.41.
“AGGTGATTAATATATACACACATACATATATATATA [CACACA_site8913]”: the “gcPBM binding intensity (ln)” value is 9.36 ± 0.3.
Turning to “AACCATAAAAAGTGTACACATATAAAAAATATGGAA [CACACA_site4199]”, the “gcPBM binding intensity (ln)” value amounted to 9.21 ± 0.53.
In the case of TATATAAATTAACCAGTGCATTATTTGGAAATTATT, the “gcPBM binding intensity (ln)” value was found to be 8.63 ± 0.42.
For “TATGCTTTTACAATGTGTACTTATATTTTTCACAGG [XGTACX_site6201]”, the “gcPBM binding intensity (ln)” value worked out at 9.02 ± 0.43.
With “ATATATCATCATGTATGTACACACATACATATATTA [XGTACX_site2814]” the figure was 9.21 ± 0.29.
For the sequence “TAATTTTCAATAATTTGTACATAATTTTTATAAATT [XGTACX_site8133]”, the “gcPBM binding intensity (ln)” value was found to be 8.31 ± 0.59.
Consider “ACAAGAGAAAAAAATACACACAAGATAAAAATGTAT [CACACA_site607]”, for which the “gcPBM binding intensity (ln)” value came to 9.21 ± 0.46.
For “TAAAAAAATTTTACAAGTACAAAAAAATGTAATAAA [XGTACX_site4829]”, the “gcPBM binding intensity (ln)” value came to 8.68 ± 0.6.
For the sequence “ATATATATAGATCGAAGTACAGATAGAATGAAAATA [XGTACX_site2695]”, the “gcPBM binding intensity (ln)” value was found to be 9.14 ± 0.28.
For “ATATATAAATATATTTGTACATATAATATGTATTAT [XGTACX_site8820]”, the “gcPBM binding intensity (ln)” value turned out to be 8.83 ± 0.38.
Turning to “CTAGGTATGCTTTAAACATGCAAAAATACAAATTAC [TGCATGCA_site239]”, the “gcPBM binding intensity (ln)” value was determined as 8.91 ± 0.49.
With AAATATTATAAAAAGGTGCATTTTTATTATATGAGT the figure was 8.64 ± 0.4; with “TTTTGTTATAATAAAGTGCATTTAGTCGGGTTACAA [GTGCAC_site9779]”, 8.5 ± 0.42; with “ATATATGTTTTTATATGTACTTATAATGTGTGTATA [XGTACX_site5165]”, 9.26 ± 0.36.
For the sequence “AATTTAAAAAAAATCACACACAGAAAAAAAAAAAAA [CACACA_site2322]”, the “gcPBM binding intensity (ln)” value turned out to be 8.96 ± 0.52.
Under “AAGGAAAACAATAGGTGTACCAAACGTCCTAGGAAC [XGTACX_site5732]” stands 9.26 ± 0.57.
With “TTTCTTCATTTTTTCACACATAAGAAAATATAATCA [CACACA_site4275]”, the “gcPBM binding intensity (ln)” value was found to be 8.38 ± 0.4.
Consider “AAAAAAGCAATATGATGTACATTTACTTTGTGAAAG [XGTACX_site4450]”, for which the “gcPBM binding intensity (ln)” value is 8.73 ± 0.46.
For the sequence “TAAAAAAATAAAATTACACACATATATAAATATATA [CACACA_site2620]”, the “gcPBM binding intensity (ln)” value was 8.68 ± 0.4.
With “TATATCCACATTTTTAGTACTTAAAAATAAATAAAC [XGTACX_site3826]” the figure was 8.49 ± 0.38.
As to “TTCTGACCAATGCTATAAAATAATACAAAAGAAAAA [GTGCAC_negctrl_site3]”, the “gcPBM binding intensity (ln)” value was 8.46 ± 0.45.
For the sequence “TGAAGAGGAAACAAACAAAATGAATAATTAAAAAGG [CACACA_negctrl_site1601]”, the “gcPBM binding intensity (ln)” value turned out to be 8.79 ± 0.59.
Under “TATATATAAATATGCTGTACGTTTTAATACGTTAAG [XGTACX_site2378]” stands 8.53 ± 0.38; under “TAATTATATTCACTTGCTATATAAATTATATATATT [CACACA_negctrl_site526]”, 8.59 ± 0.45; under “CTCAAAGGAATATTCACACATAAATTATAGACTACA [CACACA_site6050]”, 8.8 ± 0.45.
Regarding “ATACACACTCAAAAAAGTACTTAACTACATGAATTG [XGTACX_site6366]”, the “gcPBM binding intensity (ln)” value was 8.89 ± 0.52.
“AAGAAAAAAATATATGTTTATTTACTTTAATAATTT [TGCATGCA_negctrl_site168]”: the “gcPBM binding intensity (ln)” value came out at 8.27 ± 0.49.
For “GTATATATATATATATGCAAATGTATAAATCTACAT [CACACA_negctrl_site546]”, the “gcPBM binding intensity (ln)” value came to 9.32 ± 0.2.
Take “AAAAAAAGTTATATTACACACTTTATTCGTTAACTT [CACACA_site3013]”: the “gcPBM binding intensity (ln)” value worked out at 8.82 ± 0.41.
On to “ACAACAATATTTGAATGTACTCTATTTTCGTTGTTC [XGTACX_site593]”, for which the “gcPBM binding intensity (ln)” value is 8.96 ± 0.51.
As to “ATATTTATGAAGTTCACACATATATATATATATATA [CACACA_site5954]”, the “gcPBM binding intensity (ln)” value came out at 9.72 ± 0.45.
On to “GATAAATTAAAACACACACACATATATATATATATA [CACACA_site3962]”, for which the “gcPBM binding intensity (ln)” value is 9.99 ± 0.042.
For the sequence “TTATAATAAAATGAATATATATAATTTAAAATATTT [CACACA_negctrl_site1651]”, the “gcPBM binding intensity (ln)” value was 8.27 ± 0.54.
Regarding AAAAAAATAGTCTTCTTGCACTTTTTAATTTATTTT, the “gcPBM binding intensity (ln)” value worked out at 8.51 ± 0.51.
With “AATCACCAAATATGTACACACCTTAACATGTTTATA [CACACA_site5180]” the figure was 9.14 ± 0.38.
Under “ATTATTCATTTATGTAGTACATTTTAATACATTTAA [XGTACX_site3599]” stands 8.68 ± 0.39.
